# Measurements taken from PubChem BioAssay AID504832 (National Center for Advancing Translational Sciences (NCATS), 2011).
# About 18,000 (5.8%) of roughly 310,000 compounds were called active. The inconclusive results got no clear call from the source; some entries with a clear call stand among them for comparison. Calls follow the shape of the dose curve; as a rule, active = well fitted inhibition curve with a large enough effect; inconclusive = small, poorly fitted or top-dose-only effect, or another doubt; inactive = no such curve, though single readings can be large or run the other way. No potency is given beside an inconclusive call; the fits are too rough.
# Assay: Primary qHTS for delayed death inhibitors of the malarial parasite plastid, 48 hour incubation
# Conditions: P. falciparum luciferase growth in erythrocytes; series mostly up to 28.7 µM
# Procedure, shortened: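 Here the parasites carry a stable luciferase gene and grow inside erythrocytes in Albumax-based RPMI medium with compound for one erythrocytic cycle. Activity is scored as loss of luminescent signal.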
# % is scaled to controls: 0 for no effect and ±100 for the full control effect; potency is read from the fitted curve at half-maximal effect; tags tell the direction and shape of the fitted curve.
SMILES,Potency,"activity change, negative = inhibition"
Cc1nn(C)c(Cl)c1CN1CCCC(CO)(Cc2ccccc2)C1 (stereo unspecified),"inconclusive [inhibitor, single point]",–
COC(=O)c1sccc1NC(=O)c1cc(-c2cc(C)ccc2C)nc2ccccc12,"inconclusive [inhibitor, single point]",–
COc1ccc(NC(=O)CNCCC2=CCCCC2)cc1,inactive,–
CC(=O)c1c(C)[nH]c(C(=O)CN2C(=O)NC(C)(CCC(C)C)C2=O)c1C (stereo unspecified),inactive,–
COc1cc(C(=O)Nc2ccc3c(c2)ncn3C)cc(OC)c1OC,"inconclusive [inhibitor, partial curve, poor fit]",–
Cn1c(SCC(=O)Nc2ccc3nc(SCC(=O)N4CCCC4)sc3c2)nnc1-c1ccccc1,active: 9.28 µM,–
O=S(=O)(c1cccc(F)c1)N1CCN(Cc2cc3c(cc2Br)OCCO3)CC1,active: 9.28 µM,–
COc1cc(NC(=O)C(C)Oc2ccccc2)cc(OC)c1 (stereo unspecified),inactive,–
N#Cc1ccc(C(=O)OCC(=O)NC(=O)NCc2ccccc2)cc1,inactive,–
CC(NC(=S)NC1CCCCC1)c1ccccc1 (stereo unspecified),"inconclusive [inhibitor, single point]",–
CC(Cc1ccccc1)NC(=O)Cc1ccc([N+](=O)[O-])cc1 (stereo unspecified),"inconclusive [inhibitor, single point]",–
CN(C)S(=O)(=O)N1CCC(Oc2ccc(C(=O)NC3Cc4ccccc4C3)cc2)CC1,"inconclusive [inhibitor, partial curve, poor fit]",–
COCCCNC(=O)CCc1c(C)nc2c(c(C)nn2-c2ccccc2)c1C,"inconclusive [inhibitor, single point]",–
C=C(C)COc1ccc(-c2nc(N)ncc2-c2ccc(Br)cc2)c(O)c1,active: 8.28 µM,–
CCCCCC1CCC(c2n[nH]c(=S)n2C)CC1 (stereo unspecified),"inconclusive [inhibitor, single point]",–
CC(C)(C)c1cc(C(F)(F)F)n2ncc(-c3ccccc3)c2n1,–,inactive: 36.4% [at 5.75 µM]
CCOc1ccccc1CNS(=O)(=O)c1csc(C(N)=O)c1,"inconclusive [inhibitor, partial curve, poor fit]",–
CCSc1ccc2cc(OC)ccc2[n+]1CC,active: 0.738 µM,–
Cc1ccc(S(=O)(=O)N2CCN(S(=O)(=O)N3CCCCC3)CC2)c(C)c1,inactive,–
Cc1cc(C(C)(C)C)cc(C)c1Cn1c2[n+](c3ccc(C(F)(F)F)cc31)CCCCC2,active: 3.29 µM,–
Cc1ccc(CN2CCN(Cc3cnn(-c4ccc(Cl)cc4)c3)CC2CCO)o1 (stereo unspecified),inactive,–
CCOc1cccc(C=Nc2cc(C)cc(C)c2O)c1O,"inconclusive [inhibitor, single point]",–
CCC(C)C1NC(=O)C(Cc2ccc(O)cc2)NC(=O)C(N)CSSCC(C(=O)N2CCCC2C(=O)NC(CC(C)C)C(=O)NCC(N)=O)NC(=O)C(CC(N)=O)NC(=O)C(CCC(N)=O)NC1=O (stereo unspecified),inactive,–
O=C(NCCCN1CCOCC1)c1ccc2c(c1)N(Cc1cccc(F)c1)C(=O)c1ccccc1S2,"inconclusive [inhibitor, partial curve]",–

SMILES,Potency,"activity change, negative = inhibition"
COc1ccc(CCNS(=O)(=O)c2csc(C(N)=O)c2)cc1OC,inactive,–
CC(=O)c1c(C)[nH]c(C(=O)COC(=O)C2CC2)c1C,inactive,–
Cc1ccc(S(=O)(=O)n2nc(-c3ccc(Cl)cc3)nc2NCc2ccco2)cc1,"inconclusive [inhibitor, single point]",–
CN(C)C(CNC(=O)c1ccc(NC(=O)c2cccs2)cc1)c1ccccc1 (stereo unspecified),"inconclusive [inhibitor, single point]",–
COc1ccc(C(=O)Nc2ccccc2C(=O)NC(Cc2c[nH]c3ccccc23)C(=O)O)cc1 (stereo unspecified),"inconclusive [inhibitor, single point]",–
O=C(CCc1nnc2ccc(NCc3ccccc3Cl)nn12)NCC1CCN(C2CCCC2)C1 (stereo unspecified),"inconclusive [inhibitor, partial curve]",–
O=[N+]([O-])c1ccc(/C=N/Nc2nc(N3CCOCC3)nc(N3CCOCC3)n2)cc1,inactive,–
N#Cc1ccccc1NC(=O)COc1c(Br)cc(Br)c2cccnc12,"inconclusive [inhibitor, single point]",–
CCOc1cc(CNc2ccc(O)cc2)cc(Br)c1OCc1ccccc1F,"inconclusive [inhibitor, partial curve, poor fit]",–
Cc1ccc(-c2c[n+]3c(n2-c2ccccc2)SCC3)cc1,"inconclusive [inhibitor, full curve]",–
Oc1ccccc1C1NCc2ccccc2-n2cccc21 (stereo unspecified),active: 13.1 µM,–
Cc1c(C(c2ccccc2O)c2c(C)n(C)n(-c3ccccc3)c2=O)c(=O)n(-c2ccccc2)n1C,"inconclusive [inhibitor, partial curve, poor fit]",–
O=C(c1ccccc1)C(O)C(c1ccccc1)N1CCOCC1 (stereo unspecified),inactive,–
CCCC(=O)OCCNc1cc(Sc2nc3ccccc3[nH]2)c2nonc2c1[N+](=O)[O-],"inconclusive [inhibitor, single point]",–
N/C(=N\OCc1ccc([N+](=O)[O-])cc1)c1ccncc1,inactive,–
O=S1(=O)CC=C(CSc2nc3ccccc3[nH]2)C1,inactive,–
Fc1cccc2sc(N3CCOCC3)nc12,inactive,–
O=C(CS(=O)(=O)c1ccccc1Cl)N1CCOCC1,inactive,–
CN1CCN(S(=O)(=O)c2cnccc2N2CCN(c3cccc(Cl)c3)CC2)CC1,active: 2.62 µM,–
CCn1cc(C(=O)O)c(=O)c2cc(F)c(N3CCN(C(=S)NC(=O)c4ccc(F)cc4)CC3)cc21,"inconclusive [inhibitor, partial curve]",–
COc1cccc(-c2ncc3ccccc3c2COC(=O)c2ccc(C(C)(C)C)cc2)c1,"inconclusive [inhibitor, single point]",–
CCOC(=O)/C=C1\CN(Cc2ccc(OC)cc2)S(=O)(=O)c2ccccc21,"inconclusive [inhibitor, single point]",–
Cc1ccc(-c2ccc(CCC(=O)O)n2CC(=O)O)cc1,inactive,–
COc1ccc(-c2nc(N)ncc2Oc2ccccc2Br)c(O)c1,"inconclusive [inhibitor, full curve, poor fit]",–

SMILES,Potency,"activity change, negative = inhibition"
NC(=O)N/N=C/c1ccccc1OCC(=O)NCc1ccccc1,inactive,–
COc1ccc(NC(=O)c2nc[nH]c2C(=O)NCC(=O)OC(C)(C)C)cc1,"inconclusive [inhibitor, partial curve, poor fit]",–
Nc1ccc(C2(c3ccc(N)cc3)C(=O)Nc3ccccc32)cc1,inactive,–
COc1ccc(-c2csc(N(CC3CCCO3)C(=O)c3ccc(C)cc3)n2)cc1 (stereo unspecified),active: 5.22 µM,–
COc1ccc(-c2cc3ccccc3n2CC(O)CN2CCCCC2)cc1 (stereo unspecified),inactive,–
CCCn1c(=O)c(C(=O)NNC(=O)c2ccc(Cl)cc2Cl)c(O)c2ccccc21,"inconclusive [inhibitor, full curve, poor fit]",–
O=C(Cc1csc(NC(=O)Nc2ccc(Cl)cc2)n1)NC1CCCC1,"inconclusive [inhibitor, single point]",–
CCCCNC(=O)COC(=O)c1cc(C)oc1C,inactive,–
Cc1nc(C(=O)Nc2cccc(Cl)c2)nn1-c1cc(OC(C)C)c(Cl)cc1Cl,"inconclusive [inhibitor, single point]",–
O=C(Nc1ccccc1N1CCN(C(=O)c2ccc(Cl)cc2)CC1)c1cccc([N+](=O)[O-])c1,inactive,–
CC1=Nc2ccccc2N=C(NC(=O)CN2CCN(c3ccccc3)CC2)C1c1ccccc1 (stereo unspecified),active: 5.86 µM,–
CC(C)On1c(SCC(=O)N(C)C)nc2ccccc2c1=O,"inconclusive [inhibitor, partial curve, poor fit]",–
CN(C)C(CNC(=O)CCCN1C(=O)c2cccc3cccc(c23)C1=O)c1ccccc1 (stereo unspecified),"inconclusive [inhibitor, partial curve, poor fit]",–
Cc1ccc(CN2CC(C(=O)Nc3ncc(C)s3)CC2=O)cc1 (stereo unspecified),"inconclusive [inhibitor, single point]",–
CCCn1c(SCC(=O)N2c3ccccc3Sc3ccccc32)nc2c1c(=O)n(C)c(=O)n2C,inactive,–
CCOc1ccc(C(=O)NCC(=O)NNC(=O)CN(C)S(=O)(=O)c2ccc(Cl)cc2)cc1,inactive,–
CC(C)NC(=O)CNc1ccc(C(F)(F)F)cc1[N+](=O)[O-],"inconclusive [inhibitor, partial curve, poor fit]",–
CCn1c(CC(=O)Nc2ccc(C)cc2)nnc1SCC(=O)N1CCN(c2ccccc2)CC1,"inconclusive [inhibitor, partial curve, poor fit]",–
O=c1[nH]c(C2CCCN(S(=O)(=O)Cc3ccccc3)C2)nc2c1nnn2Cc1cccc(Cl)c1 (stereo unspecified),active: 11.7 µM,–
O=C(NCC1CCCN1S(=O)(=O)c1cccs1)c1c(F)cccc1F (stereo unspecified),"inconclusive [inhibitor, partial curve]",–
CCOc1ccc(CCNc2nc3ccc(C)cc3n3cnnc23)cc1OCC,"inconclusive [inhibitor, partial curve]",–
Cc1noc(C)c1C(=O)N(CC(=O)Nc1ccc(Cl)c(C(F)(F)F)c1)Cc1ccco1,"inconclusive [inhibitor, single point]",–
CCOC(=O)C1(CC2CCCCO2)CCN(S(=O)(=O)c2ccc(C)s2)CC1 (stereo unspecified),"inconclusive [inhibitor, single point]",–
